This is one part of the list.

In the experiment the test system is PF3D7_0420300 AP2 domain 1 (GST-tagged). Put plainly: gcPBM binding intensity (ln(normalized median fluorescence intensity)); higher = stronger DNA binding. In a few lines: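 GST-fused DNA-binding domains of P. falciparum, expressed in E. coli, were applied at about 25 μg on average for 1 h to an Agilent 4 × 180k array of primer-extended double-stranded 36-bp intergenic genomic probes and negative controls. Binding intensity is the highest Masliner-normalised natural-log median intensity across replicate spots of either probe orientation, measured with Alexa488 anti-GST antibody and a 488 nm scan.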
“ATATATAACGTGCACACACACATTTACGTATGAATA [CACACA_site6948]”: the “gcPBM binding intensity (ln)” value is 9.94.
With “TTTATGTATTTTTATGCACACATGCGTGGCTTATAT [CACACA_site4374]”, the “gcPBM binding intensity (ln)” value is 9.55.
The figure for “TACGGACATACTAACGGACACACGTAAGAAAAAAAA [CACACA_site602]” is 9.33; for “TTTATAATAAAATTTTTACACACTTTAAAAAAAAAA [CACACA_site8070]” it is 8.95.
For “AATATTCGTAATTGATGTACTTGTAATTCATACATT [XGTACX_site8314]”, the “gcPBM binding intensity (ln)” value was 9.3.
With “TTTTTTTCAATATTTGCACACGATTATAATATTTAA [CACACA_site2237]”, the “gcPBM binding intensity (ln)” value is 9.35.
For the sequence “CAGAATAATTTTATCGGTACACACTGTATGCATAAT [XGTACX_site736]”, the “gcPBM binding intensity (ln)” value worked out at 9.42.
In the case of “AATAAATATCTGTACACACACAAATAAATACATATC [CACACA_site5108]”, the “gcPBM binding intensity (ln)” value was determined as 10.1.
The figure for “TATAATAAAAATAATACACACATATATAGCAATCGT [CACACA_site3241]” is 9.99.
The figure for “ATTAGTTTACACATATGTACATATATTACAACAAAA [XGTACX_site275]” is 9.22; for “GGTGATATAATATATACATGCACATATATATTATTA [TGCATGCA_site970]” it is 9.33.
For the sequence “TATGGAAATATATATTGTACGTATGACCTTTAAAAA [XGTACX_site3935]”, the “gcPBM binding intensity (ln)” value was 9.19.
For “TTTATATGTATGAAGTGTACACATATATTGTATTTT [XGTACX_site5731]”, the “gcPBM binding intensity (ln)” value is 9.32.
Regarding “TTACAAAAAAATAATTGTACATACAATTTCTGTTAT [XGTACX_site877]”, the “gcPBM binding intensity (ln)” value worked out at 8.99.
With “ATTATATCATCTAAAACATGCACACATATGTACTCT [TGCATGCA_site949]”, the “gcPBM binding intensity (ln)” value came out at 9.54.
As to “GTTGAGAAAATATGTGCATGTCAGGTTAAATTTTTA [TGCATGCA_site744]”, the “gcPBM binding intensity (ln)” value worked out at 9.23.
Regarding “ATATATATATATATATGTACATAATATATGTCCTAT [XGTACX_site5087]”, the “gcPBM binding intensity (ln)” value stood at 9.21.
Regarding “GTAAGCATAAATATATGTACATACATATACAGATAT [XGTACX_site3361]”, the “gcPBM binding intensity (ln)” value was 9.44.
Turning to “TAAGATAAAAAAAATGCATGTTCTTATAATATTGTC [TGCATGCA_site939]”, the “gcPBM binding intensity (ln)” value was 9.29.
As to “CTTTTATATGTCTAATGTACGGGCAATATAAATTTG [XGTACX_site8323]”, the “gcPBM binding intensity (ln)” value was determined as 9.11.
The value for “ACACATTATAAAACTGTCGCTCATAAAGAAGAATGA [CACACA_negctrl_site999]” was 9.35.
As to “GCAACAAAAAATCAGACATGCATTTTAAAATGAATA [TGCATGCA_site846]”, the “gcPBM binding intensity (ln)” value was 9.14.
The value for “CATATTGAATATTTAACACACATTTCGCTTAATTCA [CACACA_site2086]” was 9.48; that for “TTATATATAAAATACTGTACATTTAATTGATGGTTT [XGTACX_site2073]” was 9.29.
Regarding “TATAAAAAAAAAATTTGTACATAATAATATATATAT [XGTACX_site2074]”, the “gcPBM binding intensity (ln)” value was 9.
